The whole screen tested about 150,000 compounds, of which about 540 (0.36%) showed an effect of 50% or more. Some of the results follow.
The compounds below were run on Plasmodium falciparum (assay: Primary screen in NF54 nanoGlo assay, in single point, at 2uM, 72h; a lower Z score goes with more inhibition). Details: timepoint 72 hour.
Type: functional, Erythrocyte
For `CCn1cc(-c2ccc(C)cc2)cc1C(=O)N[C@@H](C)c1cccnc1`, the “% Inhibition” value was 3% and the Z score was -0.46. With `CCN(CC(=O)Nc1c(F)cccc1F)C(=O)c1c(-c2ccccc2Cl)noc1C` the “% Inhibition” value was -9% and the Z score was 1.84. `CCCNC(=O)CN1C[C@H](C(F)(F)F)[C@@H](S(=O)(=O)N(C)C)C1` was tested, and the “% Inhibition” value was -12% and the Z score was 1.2. In the case of `Cc1cn(Cc2nc(CC(N)=O)nn2CCc2ccccc2)c(=O)[nH]c1=O`, the “% Inhibition” value is reported as -4% and the Z score is reported as 0.43. `CC(C)CCNC(=O)N1CCN(S(=O)(=O)c2ccc3c(ccn3C)c2)CC1` was tested, and the “% Inhibition” value was -13% and the Z score was 1.76. In the case of `O=C(CCc1cccnc1)N1CCC[C@H](Cc2nc3ccccc3[nH]2)C1`, the “% Inhibition” value is reported as 1% and the Z score is reported as -0.14. In the case of `O=C(c1ccncc1)N1CCC[C@H]1c1nc2ccccc2[nH]1`, the “% Inhibition” value is reported as -10% and the Z score is reported as 1.3. `Cc1ccccc1C1(C(=O)N2CCC(O)(CN)CC2)CCC1` was tested, and the “% Inhibition” value was 1% and the Z score was -0.24. In the case of `Cc1nc(-c2csc(S(=O)(=O)NCc3ccc(F)cc3Cl)c2)sc1C`, the “% Inhibition” value is reported as -10% and the Z score is reported as 1.46. `Cc1nc([C@@H]2COCCN2S(=O)(=O)c2cc(F)ccc2Cl)no1` was tested, and the “% Inhibition” value was -2% and the Z score was 0.36. `CCOc1ccc(CN2CCc3nc(N4CCCC4)ncc3C2)cc1OCC` was tested, and the “% Inhibition” value was -7% and the Z score was 0.98. For `Cc1ccc(-n2[nH]c(C(=O)N3CC=C(C(F)(F)F)CC3)cc2=O)cc1`, the “% Inhibition” value was -10% and the Z score was 1.15. For `CC(=O)N[C@H]1C[C@H]2CN(S(=O)(=O)c3cccc(Cl)c3)[C@@H](CC(C)C)C(=O)N2C1`, the “% Inhibition” value was -20% and the Z score was 1.78. For `O=C(CN(c1ccncc1)S(=O)(=O)c1ccccc1)Nc1ccc(N2CCCCC2)cc1`, the “% Inhibition” value was 3% and the Z score was -0.45. With `Cc1cc(C)n(-c2ccnc(N3CCN(C(C)C)CC3)n2)n1` the “% Inhibition” value was 2% and the Z score was -0.47. `COc1ccc(C)cc1S(=O)(=O)N1CC(c2ccncc2)C1` was tested, and the “% Inhibition” value was -4% and the Z score was 0.72. For `COc1ccccc1C(=O)Nc1ccc(OCc2coc(-c3ccc(F)cc3)n2)cc1`, the “% Inhibition” value was 9% and the Z score was -0.81. In the case of `Cc1noc(C)c1COc1ccc(C(=O)N[C@@H]2CN(C(=O)Nc3ccc(F)cc3)CCC[C@H]2O)cc1`, the “% Inhibition” value is reported as 32% and the Z score is reported as -3.58. `O=C(O)C(c1ccsc1)N1CCCC(NS(=O)(=O)c2cccc(F)c2)C1` (stereo not drawn) was tested, and the “% Inhibition” value was -6% and the Z score was 0.9. For `Cc1nc([C@H]2CC23CCN(C(=O)Nc2ccc4c(c2)OCCO4)CC3)no1`, the “% Inhibition” value was -4% and the Z score was 0.52. With `CCN=C(NCC1CC1)N1CCC(OCC)CC1` the “% Inhibition” value was 2% and the Z score was -0.22. `CC(NS(=O)(=O)c1cncc(F)c1)C1CCCO1` (stereo not drawn) was tested, and the “% Inhibition” value was 0% and the Z score was -0.09. In the case of `CCC1(c2ccc(Cl)cc2)CCN(C(=O)C2=C[S@+]([O-])CCC2)CC1`, the “% Inhibition” value is reported as -14% and the Z score is reported as 1.99. For `c1cnc(N2CCC([C@H]3CCN(Cc4nccs4)C3)CC2)nc1`, the “% Inhibition” value was -2% and the Z score was 0.45. For `CCOc1cc([C@H]2Nc3ccccc3C(=O)N2c2ccc(OC)cc2)ccc1OCc1ccc(F)cc1`, the “% Inhibition” value was 4% and the Z score was -0.5. `CCN(CC)S(=O)(=O)N1CCOC(C)(C)C1` was tested, and the “% Inhibition” value was 6% and the Z score was -0.59. In the case of `Cc1cc(CN(C)Cc2ccc3c4c(cccc24)C(=O)OC3)no1`, the “% Inhibition” value is reported as -4% and the Z score is reported as 0.63. `CCn1ccc(C(=O)N2CCC(CCC(=O)N3CCOCC3)CC2)cc1=O` was tested, and the “% Inhibition” value was -7% and the Z score was 0.61. With `CCCN(CC#N)CC(=O)NCc1ccccc1OC` the “% Inhibition” value was -8% and the Z score was 1.04. In the case of `N#Cc1cc(CN2CCC[C@H]2c2ccncc2)ccc1F`, the “% Inhibition” value is reported as -17% and the Z score is reported as 2.45. `COc1ccc(CNC(=O)c2cnn3c(-c4ccncc4)ccnc23)cc1OC` was tested, and the “% Inhibition” value was 0% and the Z score was 0.06. For `COc1ccccc1CNc1nc(C)no1`, the “% Inhibition” value was 5% and the Z score was -0.6. With `O=c1nc2n(nc1-c1ccccc1)C1(CCC1)Nc1ccccc1-2` the “% Inhibition” value was 54% and the Z score was -13.48. `CCC(CC)(CC)NCC(=O)Nc1c(Br)cc(C)cc1Br` was tested, and the “% Inhibition” value was 0% and the Z score was 0.01. With `Cc1ccc(C(N)=O)c(NCC2(N3CCN(C)CC3)CCCC2)n1` the “% Inhibition” value was -17% and the Z score was 1.6. With `CCCc1[nH]ccc1C(=O)NCCN1CCOC[C@@H]1C` the “% Inhibition” value was -4% and the Z score was 0.71. For `CCN1CCN(C(=O)c2csc(NC(=O)c3ccc(Cl)cc3Cl)n2)CC1`, the “% Inhibition” value was -14% and the Z score was 1.29. For `c1ccc(CC2=NCCc3ccccc32)cc1`, the “% Inhibition” value was 40% and the Z score was -4.68. With `Cc1ccc(NC(=O)c2cccn3c(Cc4ccccc4)nnc23)cc1C` the “% Inhibition” value was -8% and the Z score was 1.35. `CNC(=O)C1CCCC1NC(=O)c1ccc2[nH]ccc2n1` (stereo not drawn) was tested, and the “% Inhibition” value was -11% and the Z score was 2.1. With `CN(C)C(=O)CNC(=NCc1ccccc1)NCc1ccccc1` the “% Inhibition” value was 1% and the Z score was -0.15. For `N#Cc1nc(-c2cccnc2)oc1NC[C@@H](c1ccco1)N1CCCC1`, the “% Inhibition” value was -9% and the Z score was 1.25. `Cc1cccc([C@H]2C[C@@H](c3ccc(F)cc3)Nc3nc(N)nn32)c1` was tested, and the “% Inhibition” value was -6% and the Z score was 1.22. For `C[C@H](NC(=O)CS(=O)(=O)Cc1cscn1)c1ccccc1`, the “% Inhibition” value was 0% and the Z score was 0.02. For `CCc1sc([C@H](C)NC(=O)COCc2nncn2C)cc1C`, the “% Inhibition” value was -7% and the Z score was 1.33. In the case of `O=c1n(CC2(CO)COC2)ccn1-c1ccccc1Cl`, the “% Inhibition” value is reported as -6% and the Z score is reported as 0.64. `O=C(NC[C@H]1CCN(Cc2ccco2)C1)c1cccc2c1OCC2` was tested, and the “% Inhibition” value was -6% and the Z score was 1.29. With `CC(C)CNC(=O)N1CCC[C@H]1c1nnc(C(=O)Nc2ccc(F)cc2)s1` the “% Inhibition” value was -6% and the Z score was 0.64. `COc1ccc(NC(=O)C2[C@@H]3C=C[C@]4(O3)C(C(=O)NC3CCCC(C)C3C)N(Cc3ccc(Cl)cc3)C(=O)[C@H]24)cc1` (stereo partly drawn) was tested, and the “% Inhibition” value was -2% and the Z score was 0.2. For `CCS(=O)(=O)N1CCCN(c2ccc(=O)n(-c3ccc(C)cc3)n2)CC1`, the “% Inhibition” value was 4% and the Z score was -0.49. With `CN1CCN(C(=O)N2CCC3(CC2)C[C@H](c2ccccc2)C(=O)N3C)CC1` the “% Inhibition” value was -7% and the Z score was 0.58. In the case of `CC(=O)c1ccc(CNC(=O)COC2CCC(C)CC2)nc1C` (stereo not drawn), the “% Inhibition” value is reported as -4% and the Z score is reported as 0.65. With `COC(=O)c1ccccc1S(=O)(=O)N1CCC(c2cc(-c3cccc(C)c3)n[nH]2)CC1` the “% Inhibition” value was -6% and the Z score was 1.19. `CCn1ncn2cc(S(=O)(=O)Nc3ccc(F)cc3)cc2c1=O` was tested, and the “% Inhibition” value was 4% and the Z score was -0.57. In the case of `CC(=O)N(c1nc(CN[C@H](C)CC2CCCCC2)cs1)C1CC1`, the “% Inhibition” value is reported as 9% and the Z score is reported as -1.05. For `CS(=O)(=O)NCC(=O)N[C@@H]1[C@H]2CCO[C@H]2[C@H]1Cc1ccccc1`, the “% Inhibition” value was -17% and the Z score was 1.75. In the case of `O=C(CCC(=O)NCc1ccco1)NCc1ccc2c(c1)OCO2`, the “% Inhibition” value is reported as -5% and the Z score is reported as 0.74. For `CNC(=O)C(C)(C)CNC(=O)C[C@H](O)c1cc(Cl)cc(Cl)c1`, the “% Inhibition” value was -14% and the Z score was 2.05. In the case of `CC(C)(C)CC(=O)N[C@H]1CO[C@@H](CN2CCC(F)(F)CC2)[C@@H]1O`, the “% Inhibition” value is reported as -8% and the Z score is reported as 1.22. With `O=C(CC1=CCCCC1)Nc1cnns1` the “% Inhibition” value was -2% and the Z score was 0.24. In the case of `Cc1cc([C@@H]2CCCN2c2ccc3nnc(C(F)(F)F)n3n2)no1`, the “% Inhibition” value is reported as -1% and the Z score is reported as 0.12. In the case of `CC1CCN(CC(=O)N2c3ccccc3NC(=O)C[C@@H]2C)CC1`, the “% Inhibition” value is reported as -6% and the Z score is reported as 0.52. With `O=C(C[C@H]1CCCO1)N1CCC(S(=O)(=O)N2CCCCC2)CC1` the “% Inhibition” value was -17% and the Z score was 1.81. For `Cc1cccc(CN(C)c2nnc([C@@H]3CCCCO3)n2C)c1`, the “% Inhibition” value was -14% and the Z score was 1.96. With `CCN1CCN(C(=O)NCc2ccco2)CC1` the “% Inhibition” value was -8% and the Z score was 1.49. `CC(C)(C)CCC(=O)NCc1cnc2cnccn12` was tested, and the “% Inhibition” value was 3% and the Z score was -0.66. For `O=C(c1ccc(C(F)(F)F)cc1)N1CC[C@@H]2NCCC[C@@H]2C1`, the “% Inhibition” value was 23% and the Z score was -3.16. In the case of `CC(N[C@@H]1CCCN(S(=O)(=O)N(C)C)C1)c1ccc(C(F)F)nc1` (stereo partly drawn), the “% Inhibition” value is reported as -7% and the Z score is reported as 1.33. For `CC(C)[C@H](CCO)Nc1ncc(Br)cn1`, the “% Inhibition” value was -6% and the Z score was 0.51. With `CCCc1cnc(NC(=O)[C@@H]2CCCCN2)s1` the “% Inhibition” value was -3% and the Z score was 0.27. With `CCCCCc1ccc(C(=O)Nc2ccc3[nH]cc(CCN(CCC)CC4CC4)c3c2)cc1` the “% Inhibition” value was 21% and the Z score was -2.09. In the case of `COC[C@H](NC(=O)c1c(F)c(F)cc(F)c1F)C1CC1`, the “% Inhibition” value is reported as 2% and the Z score is reported as -0.36. For `CCNC(=O)[C@@H]1C[C@@H](N)CN1C(=O)c1cccc(-c2ccc(C)cc2)c1`, the “% Inhibition” value was 2% and the Z score was -0.43. In the case of `c1csc(-c2ocnc2-c2nc([C@H]3CCOC3)no2)c1`, the “% Inhibition” value is reported as -13% and the Z score is reported as 1.36. For `O=C(COc1ccc(Cl)cc1)Nc1ccccc1-c1nc2ccccc2[nH]c1=O`, the “% Inhibition” value was -5% and the Z score was 0.82. In the case of `Cc1noc2c1N=C(c1ccc(F)cc1)C[C@@H](c1ccccc1)C2`, the “% Inhibition” value is reported as -6% and the Z score is reported as 0.72. With `Cc1nc2ccc(C(=O)N3CCCN(C(C)C)CC3)cc2n1C` the “% Inhibition” value was -3% and the Z score was 0.37. `CN(CCN(C)c1ccc(C#N)nc1)C(=O)OC(C)(C)C` was tested, and the “% Inhibition” value was 6% and the Z score was -0.99. With `OC12CCCCC1CN(Cc1cccc(C(F)(F)F)c1)CC2` (stereo not drawn) the “% Inhibition” value was -12% and the Z score was 1.11. `COCCN1C[C@H](CNC(=O)NCc2ccccc2)OCC1=O` was tested, and the “% Inhibition” value was -14% and the Z score was 1.82. `NC(=O)c1cc(Br)ccc1F` was tested, and the “% Inhibition” value was 1% and the Z score was -0.12. `Clc1cncnc1NC[C@@H]1CCCC[C@@H]1N1CCOCC1` was tested, and the “% Inhibition” value was -5% and the Z score was 0.75. `CCOc1cc(N2CCOCC2)c(OCC)cc1NC(=O)c1cccc(S(=O)(=O)N2CCCc3ccccc32)c1` was tested, and the “% Inhibition” value was -5% and the Z score was 0.89. For `Cn1c(-c2ccccc2)nnc1N1CCCOCC1`, the “% Inhibition” value was -48% and the Z score was 5.64.

From ChEMBL document CHEMBL4888484, “Replenishing the malaria drug discovery pipeline: Screening and hit evaluation of the MMV Hit Generation Library 1 (HGL1) against asexual blood stage Plasmodium falciparum ,using a nano luciferase reporter read-out” (2022)
